# Laboratory results: the supplement of paper PMC8728848
# Some of the results follow.
# B1: Gal 4 (Mus musculus), P56470 (protein)
# chain: MAYVPAPGYQPTYNPTLPYYQPIPGGLNVGMSVYIQGVASEHMKRFFVNFVVGQDPGSDVAFHFNPRFDGWDKVVFNTLQGGKWGSEERKRSMPFKKGAAFELVFIVLAEHYKVVVNGNPFYEYGHRLPLQMVTHLQVDGDLQLQSINFIGGQPLRPQGPPMMPPYPGPGHCHQQLNSLPTMEGPPTFNPPVPYFGRLQGGLTARRTIIIKGYVPPTGKSFAINFKVGSSGDIALHINPRMGNGTVVRNSLLNGSWGSEEKKITHNPFGPGQFFDLSIRCGLDRFKVYANGQHLFDFAHRLSAFQRVDTLEIQGDVTLSYVQI
# Assays:
# Test in all cases: glycan array binding signal (z-score within array); higher = stronger binding
# Settings in all cases: glycan notation: IUPAC condensed, linker removed
# [1] = biological target: GlcNAc(b1-6)Gal(b1-4)GlcNAc
# Summary of the method: (§1)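 Glycan array data came from 3228 arrays in the Consortium for Functional Glycomics database, and only arrays with an available protein sequence were kept. Glycan names were put into IUPAC-condensed notation, and columns mapping to the same glycan were averaged. The binding signal is a within-array Z-score, averaged across arrays of one protein sequence run at different concentrations or buffers and across linkers. A negative Z-score can be read as non-binding.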
# [2] = biological target: GlcNAc(b1-6)GalNAc
# Summary of the method: as §1
# [3] = biological target: GlcNAc3Prop(b1-4)GlcNAc
# Summary of the method: as §1
# [4] = biological target: GlcNAc6S(b1-3)Gal(b1-4)GlcNAc
# Summary of the method: as §1
# [5] = biological target: Kdn(a2-3)Gal(b1-3)GalNAc
# Summary of the method: as §1
# [6] = biological target: Kdn(a2-3)Gal(b1-3)GlcNAc
# Summary of the method: as §1
# [7] = biological target: Kdn(a2-3)Gal(b1-4)Glc
# Summary of the method: as §1
# [8] = biological target: Kdn(a2-3)Gal(b1-4)GlcNAc
# Summary of the method: as §1
# [9] = biological target: Kdn(a2-3)Gal(b1-4)[Fuc(a1-3)]GlcNAc
# Summary of the method: as §1
# [10] = biological target: Kdn(a2-6)Gal(b1-4)GlcNAc
# Summary of the method: as §1
# [11] = biological target: Man(a1-2)Man(a1-2)Man(a1-3)Man
# Summary of the method: as §1
# [12] = biological target: Man(a1-2)Man(a1-2)Man(a1-6)[Man(a1-3)]Man
# Summary of the method: as §1
# [13] = biological target: Man(a1-2)Man(a1-3)Man
# Summary of the method: as §1
# [14] = biological target: Man(a1-2)Man(a1-3)[Man(a1-2)Man(a1-6)]Man
# Summary of the method: as §1
# [15] = biological target: Man(a1-2)Man(a1-3)[Man(a1-2)Man(a1-6)]Man(a1-6)[Man(a1-2)Man(a1-2)Man(a1-3)]Man
# Summary of the method: as §1
# [16] = biological target: Man(a1-2)Man(a1-3)[Man(a1-2)Man(a1-6)]Man(a1-6)[Man(a1-2)Man(a1-2)Man(a1-3)]Man(b1-4)GlcNAc(b1-4)GlcNAc
# Summary of the method: as §1
# [17] = biological target: Man(a1-2)Man(a1-3)[Man(a1-6)]Man(a1-6)[Man(a1-2)Man(a1-3)]Man(b1-4)GlcNAc(b1-4)GlcNAc
# Summary of the method: as §1
# [18] = biological target: Man(a1-2)Man(a1-6)[Man(a1-3)]Man(a1-6)[Man(a1-2)Man(a1-2)Man(a1-3)]Man
# Summary of the method: as §1
# [19] = biological target: Man(a1-2)Man(a1-6)[Man(a1-3)]Man(a1-6)[Man(a1-2)Man(a1-2)Man(a1-3)]Man(b1-4)GlcNAc(b1-4)GlcNAc
# Summary of the method: as §1
# [20] = biological target: Man(a1-3)[Man(a1-6)]Man
# Summary of the method: as §1
# [21] = biological target: Man(a1-3)[Man(a1-6)]Man(a1-6)[Man(a1-2)Man(a1-3)]Man(b1-4)GlcNAc(b1-4)GlcNAc
# Summary of the method: as §1
# [22] = biological target: Man(a1-3)[Man(a1-6)]Man(a1-6)[Man(a1-3)]Man
# Summary of the method: as §1
# [23] = biological target: Man(a1-3)[Man(a1-6)]Man(a1-6)[Man(a1-3)]Man(b1-4)GlcNAc(b1-4)GlcNAc
# Summary of the method: as §1
# [24] = biological target: Man(a1-3)[Man(a1-6)]Man(b1-4)GlcNAc(b1-4)GlcNAc
# Summary of the method: as §1
# [25] = biological target: Man(a1-3)[Man(a1-6)]Man(b1-4)GlcNAc(b1-4)[Fuc(a1-6)]GlcNAc
# Summary of the method: as §1
# [26] = biological target: Man(a1-6)Man
# Summary of the method: as §1
# [27] = biological target: Man(b1-4)GlcNAc
# Summary of the method: as §1
# [28] = biological target: MurNAc(b1-4)GlcNAc
# Summary of the method: as §1
# [29] = biological target: Neu5Ac(a2-3)Gal
# Summary of the method: as §1
# [30] = biological target: Neu5Ac(a2-3)Gal(b1-3)GalNAc
# Summary of the method: as §1
# [31] = biological target: Neu5Ac(a2-3)Gal(b1-3)GalNAc(b1-3)Gal(a1-4)Gal(b1-4)Glc
# Summary of the method: as §1
# [32] = biological target: Neu5Ac(a2-3)Gal(b1-3)GalNAc(b1-4)[Neu5Ac(a2-3)]Gal(b1-4)Glc
# Summary of the method: as §1
# [33] = biological target: Neu5Ac(a2-3)Gal(b1-3)GalNAc(b1-4)[Neu5Ac(a2-8)Neu5Ac(a2-3)]Gal(b1-4)Glc
# Summary of the method: as §1
# [34] = biological target: Neu5Ac(a2-3)Gal(b1-3)GalNAc6S
# Summary of the method: as §1
# [35] = biological target: Neu5Ac(a2-3)Gal(b1-3)GlcNAc
# Summary of the method: as §1
# [36] = biological target: Neu5Ac(a2-3)Gal(b1-3)GlcNAc(b1-2)Man
# Summary of the method: as §1
# [37] = biological target: Neu5Ac(a2-3)Gal(b1-3)GlcNAc(b1-2)Man(a1-3)[GlcNAc(b1-4)][Neu5Ac(a2-3)Gal(b1-3)GlcNAc(b1-2)Man(a1-6)]Man(b1-4)GlcNAc(b1-4)GlcNAc
# Summary of the method: as §1
binder,measurement,setting,value
B1,glycan array binding signal (z-score),[1],-0.233
same,glycan array binding signal (z-score),[2],-0.24
same,glycan array binding signal (z-score),[3],-0.2
same,glycan array binding signal (z-score),[4],-0.227
same,glycan array binding signal (z-score),[5],-0.24
same,glycan array binding signal (z-score),[6],-0.224
same,glycan array binding signal (z-score),[7],-0.229
same,glycan array binding signal (z-score),[8],-0.218
same,glycan array binding signal (z-score),[9],-0.25
same,glycan array binding signal (z-score),[10],-0.242
same,glycan array binding signal (z-score),[11],-0.219
same,glycan array binding signal (z-score),[12],-0.245
same,glycan array binding signal (z-score),[13],-0.239
same,glycan array binding signal (z-score),[14],-0.238
same,glycan array binding signal (z-score),[15],-0.225
same,glycan array binding signal (z-score),[16],-0.222
same,glycan array binding signal (z-score),[17],-0.227
same,glycan array binding signal (z-score),[18],-0.25
same,glycan array binding signal (z-score),[19],-0.225
same,glycan array binding signal (z-score),[20],-0.233
same,glycan array binding signal (z-score),[21],-0.166
same,glycan array binding signal (z-score),[22],-0.241
same,glycan array binding signal (z-score),[23],-0.205
same,glycan array binding signal (z-score),[24],-0.242
same,glycan array binding signal (z-score),[25],-0.293
same,glycan array binding signal (z-score),[26],-0.218
same,glycan array binding signal (z-score),[27],-0.217
same,glycan array binding signal (z-score),[28],-0.259
same,glycan array binding signal (z-score),[29],-0.229
same,glycan array binding signal (z-score),[30],-0.232
same,glycan array binding signal (z-score),[31],-0.208
same,glycan array binding signal (z-score),[32],-0.206
same,glycan array binding signal (z-score),[33],-0.211
same,glycan array binding signal (z-score),[34],-0.21
same,glycan array binding signal (z-score),[35],-0.225
same,glycan array binding signal (z-score),[36],-0.23
same,glycan array binding signal (z-score),[37],-0.249
